Data: the supplement of paper PMC8728848
The list shows a part of the results.

Assays:
Experiment in all cases: glycan array binding signal (z-score within array); higher = stronger binding
Settings in all cases: glycan notation: IUPAC condensed, linker removed
[1] = target: Gal(b1-4)GalNAc(b1-3)[Fuc(a1-2)]Gal(b1-4)GlcNAc
Procedure, shortened: (§1)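 The binding signal is a Z-score computed within each array. Data were drawn from 3228 arrays in the Consortium for Functional Glycomics database, restricted to those with a known protein sequence. Scores were averaged over arrays of the same protein sequence at different concentrations or buffers, and over linkers, and negative values can be taken as non-binding.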

[2] = target: Gal(b1-4)Glc
Procedure, shortened: as §1

[3] = target: Gal(b1-4)Glc6S
Procedure, shortened: as §1

[4] = target: Gal(b1-4)GlcNAc
Procedure, shortened: as §1

[5] = target: Gal(b1-4)GlcNAc(a1-6)Gal(b1-4)GlcNAc
Procedure, shortened: as §1

[6] = target: Gal(b1-4)GlcNAc(b1-2)Man
Procedure, shortened: as §1

[7] = target: Gal(b1-4)GlcNAc(b1-2)Man(a1-3)Man(b1-4)GlcNAc(b1-4)GlcNAc
Procedure, shortened: as §1

[8] = target: Gal(b1-4)GlcNAc(b1-2)Man(a1-3)[Gal(b1-4)GlcNAc(b1-2)Man(a1-6)]Man(b1-4)GlcNAc(b1-4)GlcNAc
Procedure, shortened: as §1

[9] = target: Gal(b1-4)GlcNAc(b1-2)Man(a1-3)[Gal(b1-4)GlcNAc(b1-2)Man(a1-6)]Man(b1-4)GlcNAc(b1-4)[Fuc(a1-6)]GlcNAc
Procedure, shortened: as §1

[10] = target: Gal(b1-4)GlcNAc(b1-2)Man(a1-3)[Gal(b1-4)GlcNAc(b1-2)Man(a1-6)][Gal(b1-4)GlcNAc(b1-4)]Man(b1-4)GlcNAc(b1-4)[Fuc(a1-6)]GlcNAc
Procedure, shortened: as §1

[11] = target: Gal(b1-4)GlcNAc(b1-2)Man(a1-3)[Gal(b1-4)GlcNAc(b1-2)Man(a1-6)][GlcNAc(b1-4)]Man(b1-4)GlcNAc(b1-4)[Fuc(a1-6)]GlcNAc
Procedure, shortened: as §1

[12] = target: Gal(b1-4)GlcNAc(b1-2)Man(a1-3)[GlcNAc(b1-2)Man(a1-6)]Man(b1-4)GlcNAc(b1-4)GlcNAc
Procedure, shortened: as §1

[13] = target: Gal(b1-4)GlcNAc(b1-2)Man(a1-3)[GlcNAc(b1-4)][Gal(b1-4)GlcNAc(b1-2)Man(a1-6)]Man(b1-4)GlcNAc(b1-4)GlcNAc
Procedure, shortened: as §1

[14] = target: Gal(b1-4)GlcNAc(b1-2)Man(a1-3)[Man(a1-6)]Man(b1-4)GlcNAc(b1-4)GlcNAc
Procedure, shortened: as §1

[15] = target: Gal(b1-4)GlcNAc(b1-2)Man(a1-6)Man(b1-4)GlcNAc(b1-4)GlcNAc
Procedure, shortened: as §1

[16] = target: Gal(b1-4)GlcNAc(b1-2)Man(a1-6)[GlcNAc(b1-2)Man(a1-3)]Man(b1-4)GlcNAc(b1-4)GlcNAc
Procedure, shortened: as §1

[17] = target: Gal(b1-4)GlcNAc(b1-2)Man(a1-6)[Man(a1-3)]Man(b1-4)GlcNAc(b1-4)GlcNAc
Procedure, shortened: as §1

[18] = target: Gal(b1-4)GlcNAc(b1-2)[Gal(b1-4)GlcNAc(b1-4)]Man(a1-3)[Gal(b1-4)GlcNAc(b1-2)Man(a1-6)]Man(b1-4)GlcNAc(b1-4)GlcNAc
Procedure, shortened: as §1

[19] = target: Gal(b1-4)GlcNAc(b1-2)[Gal(b1-4)GlcNAc(b1-4)]Man(a1-3)[Gal(b1-4)GlcNAc(b1-2)[Gal(b1-4)GlcNAc(b1-6)]Man(a1-6)]Man(b1-4)GlcNAc(b1-4)GlcNAc
Procedure, shortened: as §1

[20] = target: Gal(b1-4)GlcNAc(b1-2)[Gal(b1-4)GlcNAc(b1-4)]Man(a1-3)[GlcNAc(b1-4)][Gal(b1-4)GlcNAc(b1-2)Man(a1-6)]Man(b1-4)GlcNAc(b1-4)GlcNAc
Procedure, shortened: as §1

[21] = target: Gal(b1-4)GlcNAc(b1-2)[Gal(b1-4)GlcNAc(b1-4)]Man(a1-3)[GlcNAc(b1-4)][Gal(b1-4)GlcNAc(b1-2)[Gal(b1-4)GlcNAc(b1-6)]Man(a1-6)]Man(b1-4)GlcNAc(b1-4)GlcNAc
Procedure, shortened: as §1

[22] = target: Gal(b1-4)GlcNAc(b1-2)[Gal(b1-4)GlcNAc(b1-6)]Man(a1-6)[Gal(b1-4)GlcNAc(b1-2)Man(a1-3)]Man(b1-4)GlcNAc(b1-4)GlcNAc
Procedure, shortened: as §1

[23] = target: Gal(b1-4)GlcNAc(b1-2)[Gal(b1-4)GlcNAc(b1-6)]Man(a1-6)[Gal(b1-4)GlcNAc(b1-2)Man(a1-3)]Man(b1-4)GlcNAc(b1-4)[Fuc(a1-6)]GlcNAc
Procedure, shortened: as §1

[24] = target: Gal(b1-4)GlcNAc(b1-2)[Gal(b1-4)GlcNAc(b1-6)]Man(a1-6)[GlcNAc(b1-4)][Gal(b1-4)GlcNAc(b1-2)Man(a1-3)]Man(b1-4)GlcNAc(b1-4)GlcNAc
Procedure, shortened: as §1

[25] = target: Gal(b1-4)GlcNAc(b1-2)[Gal(b1-4)GlcNAc(b1-6)]Man(a1-6)[GlcNAc(b1-4)][Gal(b1-4)GlcNAc(b1-2)[Gal(b1-4)GlcNAc(b1-4)]Man(a1-3)]Man(b1-4)GlcNAc(b1-4)[Fuc(a1-6)]GlcNAc
Procedure, shortened: as §1

[26] = target: Gal(b1-4)GlcNAc(b1-3)Gal(b1-3)GalNAc
Procedure, shortened: as §1

[27] = target: Gal(b1-4)GlcNAc(b1-3)Gal(b1-3)GlcNAc
Procedure, shortened: as §1

[28] = target: Gal(b1-4)GlcNAc(b1-3)Gal(b1-4)Glc
Procedure, shortened: as §1

[29] = target: Gal(b1-4)GlcNAc(b1-3)Gal(b1-4)GlcNAc
Procedure, shortened: as §1

[30] = target: Gal(b1-4)GlcNAc(b1-3)Gal(b1-4)GlcNAc(b1-2)Man(a1-3)[Gal(b1-4)GlcNAc(b1-3)Gal(b1-4)GlcNAc(b1-2)Man(a1-6)]Man(b1-4)GlcNAc(b1-4)GlcNAc
Procedure, shortened: as §1

B1: CC1G-10077 (Coprinopsis cinerea), A8NDT7 (protein)
chain: MALNEGVYWIRNSRFTNKVLDLDAANVAKGTSILDFNEHGTFNENHNQLWIVERFQSRDTYLIRSVHSNLVLDLSQGLSANGTPILCWTQHGGTNQQWRIEWVKDDNKTPLYRIVSVATGTAISHNEDDSSAYTVAWSVDDGPKQLWSFDPFVTPLLYRLRVKSTSRVLDLAAASADNGTLALAWEQHTAITKRNQLWWLPYRSGAEEYTIQCLETSTVADLSGGNSGNGTPIYGWQSHGGRNQQWKFEPTSDSGDYYHIKNVEGGSVMDAYMNDSQKRVGGWSNNGGDNQKWLLDPLPSPGPGWVLIQNGGTGKFLCSTPSGDIGTADGPETVYDYSVQWRFIQREYTGVYHVVNRATGAYLRQIGTSMPSIGLAEENDDELKDWWMLETYDNSEIGLASIISRWTGNVLDHYGGVSVQALDNNTENSYRSWAIIPARDWLTSFSLVNGQGGLCLAAQYAREETRLSTTANVNDFHAQWVFRKPSGSSGYTIQNKYNNHYVGGTSARWELVVCCNKYFGIRNTSTQKYLAIEDGQVTFQDQDMTDRKQCWELCSGRATDTSGNDYDLIYMDDDLLEVMIPWVGDKQGDLKHYIEKRATKKPPKDKGGWQLPAAGLIKKPKFNDIRQLLQELIEQWEWDVVNEEREQIQTLVSIDEAEARRLLGRRPHPDIVAAYQRSRSSTLFRIDRQGYFNIAGDRYVNIQGQYGDDSYFHIALPVGVRFGREQIRRFLRDSLDRSTSVTITPTTCKPPSGGPDYNRDPDSDGDNSWIKWTIAVVGTSAIKHSEL
For B1, the “glycan array binding signal (z-score)” value [1] was 0.111, the “glycan array binding signal (z-score)” value [2] was -0.083 and the “glycan array binding signal (z-score)” value [3] was -0.024. The “glycan array binding signal (z-score)” value [4] was 0.829, the “glycan array binding signal (z-score)” value [5] was 3.26 and the “glycan array binding signal (z-score)” value [6] was -0.331. For the same binder, the “glycan array binding signal (z-score)” value [7] was 1.15, the “glycan array binding signal (z-score)” value [8] was 2.13 and the “glycan array binding signal (z-score)” value [9] was 0.665. The “glycan array binding signal (z-score)” value [10] was 2.17, the “glycan array binding signal (z-score)” value [11] was 1.13 and the “glycan array binding signal (z-score)” value [12] was 2.09. The “glycan array binding signal (z-score)” value [13] was 0.424, the “glycan array binding signal (z-score)” value [14] was 1.52 and the “glycan array binding signal (z-score)” value [15] was 0.348. For the same binder, the “glycan array binding signal (z-score)” value [16] was 3.12, the “glycan array binding signal (z-score)” value [17] was 0.327 and the “glycan array binding signal (z-score)” value [18] was 2.13. For the same binder, the “glycan array binding signal (z-score)” value [19] was 1.52, the “glycan array binding signal (z-score)” value [20] was 2.13 and the “glycan array binding signal (z-score)” value [21] was 2.55. For the same binder, the “glycan array binding signal (z-score)” value [22] was 2.01, the “glycan array binding signal (z-score)” value [23] was 2.14 and the “glycan array binding signal (z-score)” value [24] was 1.35. The “glycan array binding signal (z-score)” value [25] was 1.76, the “glycan array binding signal (z-score)” value [26] was 0.413 and the “glycan array binding signal (z-score)” value [27] was 0.333. For the same binder, the “glycan array binding signal (z-score)” value [28] was 1.01, the “glycan array binding signal (z-score)” value [29] was 1.17 and the “glycan array binding signal (z-score)” value [30] was 1.06.
